Test results from the GPR68 mutational scans of Howard et al. (2025).

B1: GPR68, Q15743 (parent)
chain: MGNITADNSSMSCTIDHTIHQTLAPVVYVTVLVVGFPANCLSLYFGYLQIKARNELGVYLCNLTVADLFYICSLPFWLQYVLQHDNWSHGDLSCQVCGILLYENIYISVGFLCCISVDRYLAVAHPFRFHQFRTLKAAVGVSVVIWAKELLTSIYFLMHEEVIEDENQHRVCFEHYPIQAWQRAINYYRFLVGFLFPICLLLASYQGILRAVRRSHGTQKSRKDQIQRLVLSTVVIFLACFLPYHVLLLVRSVWEASCDFAKGVFNAYHFSLLLTSFNCVADPVLYCFVSETTHRDLARLRGACLAFLTCSRTGRAREAYPLGAPEASGKSGAQGEEPELLTKLHPAFQTPNSPGSGGFPTGRLA

Columns and labels:
[1] = variants of: B1; assay: cAMP reporter score (Enrich2 score, wild type = 0); higher = more signal; HEK293T, FACS bins
[2] = variants of: B1; assay: surface expression score (Enrich2 score, wild type = 0); higher = more signal; HEK293T, FACS bins

| Variant | cAMP reporter score ([1]; pH 5.5) | cAMP reporter score ([1]; pH 6) | cAMP reporter score ([1]; pH 6, modulator: ogerin) | cAMP reporter score ([1]; pH 6.5, modulator: ogerin) | surface expression score [2] |
| --- | --- | --- | --- | --- | --- |
| MGNITADNSSMSCTIDHTIHQTLAPVVYVTVLVVGFPANCLSLYFGYLQIKARNELGVYLCNLTVADLFYICSLPFWLQYVLQHDNWSRGDLSCQVCGILLYENIYISVGFLCCISVDRYLAVAHPFRFHQFRTLKAAVGVSVVIWAKELLTSIYFLMHEEVIEDENQHRVCFEHYPIQAWQRAINYYRFLVGFLFPICLLLASYQGILRAVRRSHGTQKSRKDQIQRLVLSTVVIFLACFLPYHVLLLVRSVWEASCDFAKGVFNAYHFSLLLTSFNCVADPVLYCFVSETTHRDLARLRGACLAFLTCSRTGRAREAYPLGAPEASGKSGAQGEEPELLTKLHPAFQTPNSPGSGGFPTGRLA [H89R] | -1.03 | 0.156 | -0.941 | -0.722 | 0.408 |
| MGNITADNSSMSCTIDHTIHQTLAPVVYVTVLVVGFPANCLSLYFGYLQIKARNELGVYLCNLTVADLFYICSLPFWLQYVLQHDNWSSGDLSCQVCGILLYENIYISVGFLCCISVDRYLAVAHPFRFHQFRTLKAAVGVSVVIWAKELLTSIYFLMHEEVIEDENQHRVCFEHYPIQAWQRAINYYRFLVGFLFPICLLLASYQGILRAVRRSHGTQKSRKDQIQRLVLSTVVIFLACFLPYHVLLLVRSVWEASCDFAKGVFNAYHFSLLLTSFNCVADPVLYCFVSETTHRDLARLRGACLAFLTCSRTGRAREAYPLGAPEASGKSGAQGEEPELLTKLHPAFQTPNSPGSGGFPTGRLA [H89S] | -0.563 | -0.54 | -1.07 | -1.27 | 0.38 |

The least precise scores are not listed. Not listed are two conditions whose scores span a narrow range. Names with del lack the residues named; names with ins carry added residues between the positions named. For some of these results: How much ogerin was present is not stated here.
